According to the BET-seq Pho4 binding data (Le et al. 2018):
The other results are listed elsewhere or left out. These are noisy estimates, calculated here from bound and input reads.

Biological target: T1, Pho4 (S. cerevisiae) (UniProt P07270)
T1 sequence: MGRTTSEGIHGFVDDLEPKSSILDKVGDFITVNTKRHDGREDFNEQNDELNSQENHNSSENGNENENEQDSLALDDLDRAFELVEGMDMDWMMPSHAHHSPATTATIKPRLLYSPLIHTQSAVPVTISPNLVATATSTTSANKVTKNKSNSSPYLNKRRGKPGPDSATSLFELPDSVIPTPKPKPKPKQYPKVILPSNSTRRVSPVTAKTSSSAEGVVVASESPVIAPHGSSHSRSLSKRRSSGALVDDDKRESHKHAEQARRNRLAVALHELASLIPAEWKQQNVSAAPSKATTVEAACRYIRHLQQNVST
Assay: relative binding free energy (BET-seq); higher = weaker binding
Details: reference: library average

Sequence | relative binding free energy [kcal/mol]
TTGTTCACGTGCCTGG | 0.25
TTAGCCACGTGTTACT | 0.08
ATACGCACGTGGGGTA | -0.25
TGGTGCACGTGCTTAG | -0.03
GGGGCCACGTGTGTCG | -0.05
CGATCCACGTGGTGGG | -0.14
GGCTTCACGTGTGGGT | 0.27
TTATGCACGTGTGTTC | 0.12
TGTGCCACGTGACGGA | 0.11
TCAGTCACGTGTGAAT | 0.21
TAGTCCACGTGTTAAT | 0.06
TGTATCACGTGGATTT | 0.11
CGGGTCACGTGTGAAT | 0.23
TTGATCACGTGAGTAA | 0.44
TGAATCACGTGCTAGG | 0.22
GGGTGCACGTGTTGTC | -0.03
TTTGACACGTGGGAAT | 0.05
CATGGCACGTGTTAGG | 0.08
GGGAACACGTGGAAAG | 0.1
GTAGACACGTGATTAG | 0.18
GGCAGCACGTGTGGCG | -0.04
TTTCGCACGTGATAGG | -0.03
AAAGGCACGTGTGTTT | 0.02
ATAGTCACGTGCGGTG | 0.06
TGTATCACGTGGTGCA | -0.09
AAGAGCACGTGATGGT | 0.02

Sequence | relative binding free energy [kcal/mol]
TGGGGCACGTGCGTGC | -0.2
TCATGCACGTGGCTTG | 0.02
TTTTGCACGTGCTGCG | -0.06
ATCGACACGTGGTAGT | -0.04
AGTCACACGTGGTAGT | 0.06
GTGAGCACGTGGCGTC | -0.01
TACATCACGTGAATGT | 0.31
GTCTTCACGTGTTATT | 0.37
ATTTACACGTGCGAGG | 0.21
TGTAACACGTGTGATT | 0.1
TCGTGCACGTGGGGCC | -0.11
TGGTACACGTGTCGAT | 0.19
GGAGTCACGTGAGCTT | 0.24
TTTGGCACGTGTGCAA | -0.15
GGGGTCACGTGGAATC | 0.27
AGGGGCACGTGAGGTG | 0.06
GAGGTCACGTGTGATT | 0.18
TGGGACACGTGTGAGG | 0.11
GGTTGCACGTGCGGAA | 0.11
TTTATCACGTGGATTT | 0.25
AGGATCACGTGTTTTC | 0.23
ATCCTCACGTGTTTGT | 0.09
TTGGACACGTGTGAGA | 0.19
GGGTTCACGTGAGACG | 0.38
CGTTGCACGTGATTGC | 0.33
GATTTCACGTGATTGG | 0.36

Sequence | relative binding free energy [kcal/mol]
GTGGTCACGTGGGGGT | 0.06
ATGTTCACGTGTGAAG | 0.3
TCATGCACGTGGGTTA | -0.2
TGGGACACGTGTGTTT | 0.18
TTAGACACGTGATTTG | 0.1
GATAGCACGTGTAGGA | 0.08
GGGATCACGTGTGAGA | 0.29
GTCTCCACGTGTTTTG | 0.12
CATGCCACGTGTAGGG | -0.03
ATGAACACGTGGTTTA | 0.1
GCTGCCACGTGTGGGA | 0.17
TAAGTCACGTGTCGTT | 0.15
GCCGGCACGTGGTTGT | -0.01
AAAGGCACGTGCGTTG | -0.13
TGAATCACGTGGTTCG | 0.18
CGGGACACGTGGTGGC | -0.03
GGGCACACGTGGTCGT | 0.04
GTATGCACGTGGAAGC | 0.14
GTTAGCACGTGCCTGG | 0
AAGAGCACGTGGTTGG | -0.23
TTGAACACGTGCATGT | 0.03
TAATGCACGTGGGAAG | -0.16
GTAGGCACGTGTTGTC | -0.06
ACATTCACGTGATTGT | 0.29
TAATTCACGTGTGGAA | 0.09
AAGTGCACGTGGGAAA | -0.07

Sequence | relative binding free energy [kcal/mol]
GGTGCCACGTGATAGT | 0.14
GGAGGCACGTGGGCTT | -0.12
TAGCTCACGTGATTGT | 0.32
GAGTGCACGTGGTGCT | 0.06
ATGTACACGTGGTCGT | -0.06
TAGATCACGTGATGTG | 0.19
GAATGCACGTGTTTAG | 0.13
GCGTTCACGTGGTTTA | 0.16
TTATCCACGTGTTCTT | 0.13
TTAGACACGTGAGATT | 0.34
AGGTGCACGTGCAGAG | -0.07
GGTGGCACGTGTCACG | -0.11
CGAGGCACGTGAGGGG | 0.08
CGTTGCACGTGAGGGC | 0.04
AGTGACACGTGGTAAA | 0.01
CTGCTCACGTGAGGGG | 0.32
CTTCGCACGTGAGTGT | 0.03
GGTGTCACGTGGTAGT | 0.07
AAAGTCACGTGACGTG | 0.29
ATTATCACGTGCAATT | 0.22
TTAATCACGTGGGCTG | 0.13
TTGGGCACGTGATGCA | -0.03
TCAGTCACGTGTTAAG | 0.18
GGTAGCACGTGATGCT | 0
TCATACACGTGGGGAT | 0.06
ATTTTCACGTGAGAAA | 0.48

Sequence | relative binding free energy [kcal/mol]
TGTCGCACGTGGCTTT | -0.28
GAGGGCACGTGGGGCT | -0.16
TAGTTCACGTGAGACG | 0.34
TGGATCACGTGCTTTG | 0.16
TTTGCCACGTGCTGGG | -0.14
GCTGGCACGTGTGATA | 0.05
GCTGCCACGTGATGGT | 0.13
TATGCCACGTGGATTT | 0
GTTGTCACGTGGTTCC | 0.07
TTAGTCACGTGTCGTA | 0.04
TGATCCACGTGTTGTT | 0.02
CTTTGCACGTGGGTGT | -0.1
TCTTGCACGTGATTAT | 0.12
TAGGGCACGTGGTTAA | -0.13
CGGTGCACGTGTTTGG | -0.07
TGTTTCACGTGGTTAT | 0.4
TTATACACGTGTATTT | -0.06
GTATTCACGTGTGCAG | 0.29
AGCTTCACGTGGTGGG | 0.04
TTCATCACGTGAATTT | 0.29
ATTGCCACGTGTTAGT | -0.02
TTTTACACGTGCGTGT | 0.06
AAGTGCACGTGGTTTA | 0.05
TAAGTCACGTGACGGG | 0.17
GGCAGCACGTGCTGGT | -0.05
GTGGGCACGTGAAAAT | 0.16

Sequence | relative binding free energy [kcal/mol]
GTATACACGTGGAGGA | 0.19
TATTTCACGTGCGATA | 0.31
TATAGCACGTGGACTG | -0.1
CAAAGCACGTGGGGTA | -0.24
AACCGCACGTGAGGGT | 0.24
GAAAGCACGTGTAAGG | 0.09
CTTTGCACGTGGGTGA | -0.09
TTGTGCACGTGTTTGA | 0.02
CGGGTCACGTGCGGTG | 0.11
AGTGTCACGTGGATCG | -0.04
CTTGGCACGTGTCTGG | -0.1
AATATCACGTGGTGTT | 0.15
GTGAGCACGTGGGATG | -0.15
TGGTTCACGTGGTGCA | 0.27
TATGTCACGTGGGCTA | -0.12
GCTGGCACGTGAATTG | 0.24
GGTAGCACGTGTATTT | 0.14
TGCTGCACGTGTAGGT | -0.06
CCGGTCACGTGTTGGG | 0.02
TTTAACACGTGCTGGA | -0.08
TTAAGCACGTGAGACG | 0.23
ATTCGCACGTGGGGTT | -0.15
TAGGACACGTGCATGG | -0.02
CTGTACACGTGGGGTG | -0.12
AGTAGCACGTGAGTTA | 0.05
TGTATCACGTGTGTGT | 0.17

Sequence | relative binding free energy [kcal/mol]
GCAGGCACGTGCGGGG | -0.27
ATGTTCACGTGCAGTG | 0.2
GGGGTCACGTGGGGTC | 0.09
TGAGTCACGTGTGTTA | 0.15
GTAGGCACGTGGAAGA | 0.1
ATATGCACGTGGCGGG | -0.2
AAGGGCACGTGATGGG | 0.05
AGTATCACGTGAAATT | 0.32
GTTAACACGTGGTATG | -0.01
CTTAGCACGTGTGGCT | -0.04
GTTTTCACGTGTATGA | 0.4
TCGTGCACGTGGGTCG | -0.15
GTATACACGTGGACGT | -0.01
TAGATCACGTGCTATT | 0.19
ACTGTCACGTGGGGTA | 0.02
TGTATCACGTGCCGGG | -0.02
TTAATCACGTGTTAGT | 0.2
TTAGGCACGTGGATCT | -0.06
AGCGACACGTGTAAGG | 0.25
CGTAGCACGTGAGTTT | 0.23
TTTTTCACGTGTTGTC | 0.32
GTATTCACGTGATTTG | 0.31
GATCGCACGTGGGCTG | -0.11
TCGCGCACGTGGGGAG | -0.2
TGGGTCACGTGGTGCG | 0.09
TGGTGCACGTGGAGCG | -0.03

Sequence | relative binding free energy [kcal/mol]
TTTTTCACGTGAAAAG | 0.44
CATTGCACGTGGATAG | 0.1
CGTTACACGTGGGTAA | -0.05
GTTGTCACGTGCAGAT | 0.13
CATGGCACGTGGGGAA | -0.2
TGTGGCACGTGGGTCG | -0.18
GAGTTCACGTGGTTGG | 0.37
CTAGTCACGTGGTGAT | 0.03
AATTGCACGTGGTTTC | 0.08
TGACGCACGTGTGGTT | -0.04
GTCTGCACGTGGAAGT | 0.13
TGTGTCACGTGAGGTT | 0.29
GGTAACACGTGAGATG | 0.38
TTTTACACGTGCGAAT | 0.26
GGAATCACGTGAAGTA | 0.43
AATTGCACGTGTCATG | 0.06
TGAAACACGTGGTAGT | -0.03
TAATGCACGTGTGGGG | 0.04
ATGGTCACGTGGTAAA | 0.04
TTAGGCACGTGAGTGA | 0.17
TTTGTCACGTGATAAA | 0.17
GGAGACACGTGGTATA | 0.02
GAGGACACGTGGTGGT | 0.22
GAGCGCACGTGAGGAG | 0.22
CGTATCACGTGTGGTG | 0.01
GGTATCACGTGCGGGA | 0.19

Sequence | relative binding free energy [kcal/mol]
ATTGGCACGTGCTGTA | -0.22
TAAGTCACGTGCTTAT | 0.1
CGTAGCACGTGTTTTA | -0.01
TTGGTCACGTGTACGG | 0.22
GGTTGCACGTGGAAGT | 0.12
TATGTCACGTGAGCGT | 0.2
ATCTTCACGTGAATTT | 0.28
TTGCGCACGTGGGGAA | -0.18
TGGTACACGTGTGCGC | 0.1
TGGCTCACGTGTTGGA | 0.15
CTTGACACGTGTAGGG | -0.01
ATCTGCACGTGGGGCG | -0.14
AGTGCCACGTGGATGT | -0.15
TGTTGCACGTGGATAA | 0.08
GCTGGCACGTGTGGGG | 0.01
TGTTACACGTGTATTT | 0.09
AAAGGCACGTGGAGAT | -0.04
TGCTACACGTGTGGAA | 0.35
ACGTGCACGTGTTTGA | -0.14
TTGAGCACGTGGGACG | -0.15
TGTCACACGTGGTGCT | -0.01
ATTTGCACGTGATTAG | 0.04
